According to PubChem BioAssay AID894 (National Center for Advancing Translational Sciences (NCATS), 2007):
“And” between values parts separate entries of the source, which are not always exact repeats. Identical values can stand only once. Screen size: about 150,000 compounds; about 6,500 (4.3%) were called active. Inconclusive means that the source gave no clear call. Such entries were picked first, then a sample of the others. The call rests on the fitted dose curve; in most records, active means well fitted inhibition curve with a large enough effect (not every such curve was filed as active); inconclusive means small, poorly fitted or top-dose-only effect, or another doubt; inactive means no such curve, though single readings can be large or run the other way. A potency beside an inconclusive call is a rough fit, not a confirmed value.

target: 15-hydroxyprostaglandin dehydrogenase [NAD(+)] (Homo sapiens) (UniProt P15428); assay: qHTS Assay for Inhibitors of HPGD (15-Hydroxyprostaglandin Dehydrogenase); settings: purified HPGD, NADH fluorescence kinetic, PGE2 substrate; activity change, negative = inhibition: stronger effect = lower value
In short: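 NADH formation kinetics: reaction with 30 uM PGE2 and 1 mM NAD+ (final), 20 nM enzyme, Tris-HCl pH 8 with Tween 20, after 15 min compound preincubation at room temperature. Fluorescence change, last versus first of five reads.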
On the % scale 0 is the no-effect control and ±100 the full control effect; potency means the concentration at half of the fitted maximal effect; tags describe the fitted curve by direction and shape.

Chain of UniProt P15428 (P15428 whole entry, looked up): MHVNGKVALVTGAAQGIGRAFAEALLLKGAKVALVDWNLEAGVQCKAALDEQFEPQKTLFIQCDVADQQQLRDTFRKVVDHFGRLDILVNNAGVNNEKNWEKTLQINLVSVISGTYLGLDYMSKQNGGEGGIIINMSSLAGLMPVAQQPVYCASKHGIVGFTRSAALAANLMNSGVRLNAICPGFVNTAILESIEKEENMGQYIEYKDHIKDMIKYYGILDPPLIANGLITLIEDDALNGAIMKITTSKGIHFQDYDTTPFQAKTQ

Activity change, negative = inhibition, inactive:
COc1ccc(NC(=O)CSc2nnc(N)s2)cc1 -12.6%
O=C(O)c1ccc(O)c(N2C(=O)Nc3ccccc3N2O)c1 -6.53%
COc1ccc(NC(=O)Cn2nc(Cc3cccnc3)c3ccccc3c2=O)cc1OC -12.7%
CCOC(=O)c1ccc(NC(=O)CN2C(=O)CSC2=O)cc1 -13.7%
O=C(COc1ccccc1)N(CCc1ccccc1)c1nc(-c2ccc(F)cc2)cs1 -1.18%
COc1cc(CN(C2CCCCC2)S(=O)(=O)c2ccc(S(=O)(=O)N(C)C3CCCCC3)cc2)cc(OC)c1OC -5.81%
O=C(O)c1nn(-c2ccccc2)ccc1=O -13.2%
COc1ccc(NS(=O)(=O)c2cc(NC(=O)c3cccs3)ccc2N2CCCC2)cc1 -11.4%
COC1(OC)C(/C=C/c2ccc(Cl)cc2)C(C#N)(C#N)C1(OC)OC (stereo not drawn) -8.2%
Cc1ccc(S(=O)(=O)N2CCN(C(=O)CN3CCc4ccccc4C3)CC2)cc1 -6.26%
CC1CCc2nc(N)c(C#N)c(-c3cccnc3)c2C1 (stereo not drawn) -25.7%
CC(OC(=O)Cc1c(F)cccc1Cl)C(=O)NCCC1=CCCCC1 (stereo not drawn) -3.89%
O=C(O)CCC(=O)N1CCN(c2nc(-c3ccccc3Cl)c3cc(Br)ccc3n2)CC1 -23.9%
CCCCNC(=O)CN(C1CCCCC1)S(C)(=O)=O -1.18%
COc1ccc(CCNC(=O)CCCCCN2C(=O)c3ccccc3C2=O)cc1 -13.3%
O=S(=O)(Nc1cccc(-c2nc3cccnc3s2)c1)c1ccc2c(c1)OCCO2 -21.9%
CCc1ccc(NC(=O)CC2C(=O)NCCN2C(=S)Nc2ccccc2)cc1 (stereo not drawn) -10.9%
Cc1ccc(S(=O)(=O)NCCCCCC(=O)Nc2ccccc2C)cc1 -1.47%
O=C(NCc1cccs1)C1CCC(CNS(=O)(=O)c2ccc(Br)s2)CC1 (stereo not drawn) -1.53%
Cc1nnc(C)n1/N=C/c1ccc(O)cc1 -12.8%
COc1ccc(C2=NN(CN3C(=O)C(=O)c4ccccc43)C(c3ccc(C)cc3)C2)cc1 (stereo not drawn) -7.49%
CCOc1ccccc1C1C2C(=O)N(c3ccccc3)C(=O)C2ON1c1ccccc1 (stereo not drawn) -18.4%
CC(C)NC(=O)Cn1c(SCC(=O)c2ccc(F)cc2)nc2ccccc21 -1.08%
C=CCNC(=O)N1CCc2nc(-c3ccc(OC)cc3C)c3c(c2C1)CO[C@@H](c1ccccc1)C3 -3.19%
COC(=O)c1ccccc1NC(=S)NC(NC(=O)c1ccccc1[N+](=O)[O-])C(Cl)(Cl)Cl (stereo not drawn) -23%
Nn1c(Cc2cccc3ccccc23)nnc1SC1CCOC1=O (stereo not drawn) -6.87%

Potency, active:
CN(C)c1ccnc(NCc2ccccc2)c1C#N 14.1 µM
O=C(NNC1=C(C(=O)C(F)(F)F)CCC1)c1ccccc1Cl 14.1 µM
COc1ccccc1-n1cnc2cc(C(=O)NCC3CCCO3)ccc21 (stereo not drawn) 12.6 µM
Cc1ccc(S(=O)(=O)/C(C#N)=C/c2c(N3CCC(C(N)=O)CC3)nc3ccccn3c2=O)cc1 25.1 µM
O=C(c1cc2c(s1)CCCC2)n1cccn1 15.8 µM
N#Cc1c(-c2cccs2)nc(SCC(=O)c2cccs2)[nH]c1=O 15.8 µM
O=c1cc(-c2ccccc2F)oc2ccccc12 12.6 µM
CC(/C=N/n1c(-c2cccnc2)n[nH]c1=S)=C\c1ccccc1 3.16 µM
COc1cc(SC)ccc1C(=O)N1CCCCCC1 3.16 µM
Cc1cccc2c1N(CCCOc1ccccc1)C(=O)C2=O 28.2 µM

Potency, inconclusive:
COc1ccccc1-n1cnc2cc(NCc3ccco3)ccc21 22.4 µM [inhibitor, single point]
COc1cccc(-c2ccc(-c3noc(-c4ccccc4F)n3)c(OC)n2)c1 31.6 µM [inhibitor, partial curve]
CCCCC(=O)Nc1nc(C)c(-c2csc(Nc3cc(Cl)ccc3OC)n2)s1 35.5 µM [inhibitor, single point]
O=C(CSc1nc2ccc(NC(=O)CSc3nnnn3Cc3ccccc3)cc2s1)Nc1ccccc1 22.4 µM [inhibitor, partial curve]
COc1ccc2nc(NC(=O)c3ccc4ncsc4c3)sc2c1 25.1 µM [inhibitor, partial curve]
Brc1ccc(-c2csc3ncnc(-n4nnc5ccccc54)c23)cc1 28.2 µM [inhibitor, single point]
O=C(Nc1ccccc1-c1nnc(SCc2ccc(Cl)cc2)o1)c1ccccc1 31.6 µM [inhibitor, partial curve]
COc1ccc(/C=N/n2c(SC)nnc2-c2ccccc2)c(OC)c1OC 35.5 µM [inhibitor, partial curve]
Cc1ccc(-c2ccc(C(=O)Nc3cccc(F)c3)o2)c2ccccc12 31.6 µM [inhibitor, partial curve]
Cc1cccc(-n2c(SCc3cc(=O)n4ccsc4n3)nc3ccccc32)c1 39.8 µM [inhibitor, single point]
COC(=O)c1[nH]c2cc(OC)c(OC)cc2c1NC(=O)CN1CCN(Cc2ccccc2)CC1 20 µM [inhibitor, partial curve]
Cc1ccccc1OC(=O)n1c(=S)oc2cc(Cl)ccc21 39.8 µM [inhibitor, partial curve]
CN(CCO)c1cc(Sc2nc3ccccc3s2)c2nonc2c1[N+](=O)[O-] 25.1 µM [inhibitor, single point]
COc1ccc2nc(N3CCOCC3)cc(C)c2c1 31.6 µM [inhibitor, partial curve]
O=c1onc2cnc3ccccc3n12 35.5 µM [inhibitor, partial curve] and 25.1 µM [inhibitor, partial curve]
COC(=O)C1=C(C)NC2=C(C(=O)CC(C)(C)C2)C1c1ccsc1 (stereo not drawn) 25.1 µM [inhibitor, partial curve, poor fit]
COC(=O)c1ccccc1NC(=O)N1CCCC1 17.8 µM [inhibitor, partial curve]
Cc1ccc(C2CC2c2n[nH]c(=S)n2-c2ccc(C)cc2)cc1 (stereo not drawn) 15.8 µM [inhibitor, partial curve]
CC1=CC=CN2CC(O)CN=C12 (stereo not drawn) 7.94 µM [inhibitor, partial curve]
Oc1ccccc1-c1nnc(COc2ccc(Cl)cc2Cl)o1 31.6 µM [inhibitor, single point]
Clc1nc(-c2ccccn2)nc2scc(-c3ccccc3)c12 25.1 µM [inhibitor, partial curve]
O=C(Nc1ccccc1Cl)N1CCN(c2ccc3nnc(-c4ccccc4)n3n2)CC1 31.6 µM [inhibitor, partial curve]
CSc1nc(N)c(C#N)c(-c2ccccc2Cl)c1C#N 17.8 µM [inhibitor, partial curve, poor fit]
Cn1c(N/N=C2\CCCc3ccccc32)nc2c1c(=O)n(Cc1ccc(F)cc1)c(=O)n2C 14.1 µM [inhibitor, partial curve]
O=C(NCCO)c1ccccc1O 15.8 µM [inhibitor, partial curve]
CC(=O)N1CCc2c(sc(NC(=O)c3ccc4c(c3)OCCO4)c2C#N)C1 25.1 µM [inhibitor, single point]
CS(=O)(=O)Nc1nc2n(n1)C(c1ccccc1)C=C(c1ccc(Br)cc1)N2 (stereo not drawn) 25.1 µM [inhibitor, partial curve]
COc1ccc(CN(Cc2cc3ccc(C)cc3[nH]c2=O)Cc2nnnn2C2CCCC2)cc1 31.6 µM [inhibitor, single point]
COc1ccc(OC)c(NC(=O)c2nnn(Cc3ccccc3C)c2N)c1 31.6 µM [inhibitor, partial curve]
O=C(O)c1ccccc1-c1oc2cc(O)ccc2c(=O)c1Oc1ccccc1 25.1 µM [inhibitor, partial curve]
CCCn1nnnc1NC(=O)c1ccc(C)cc1Cl 10 µM [inhibitor, partial curve, poor fit]
CCn1c(=N)c(C(=O)NC)cc2c(=O)n3cccc(C)c3nc21 28.2 µM [inhibitor, partial curve]
O=C(CCNC(=O)Cn1ccc2ccccc2c1=O)NCCc1ccccc1Cl 31.6 µM [inhibitor, partial curve]
O=S(=O)(c1ccccc1)c1nc(-c2ccco2)oc1N1CCCCCC1 35.5 µM [inhibitor, partial curve, poor fit]
CCCCCn1c(=NC(C)=O)c(C#N)cc2c(=O)n3ccccc3nc21 28.2 µM [inhibitor, partial curve]
C=CCNC(=O)c1ccc(C)c(Br)c1 28.2 µM [inhibitor, partial curve]
COc1ccc(-c2cc(C(F)(F)F)nc(SCC(N)=O)n2)cc1 25.1 µM [inhibitor, partial curve]
